Laboratory results taken from PubChem BioAssay AID894 (National Center for Advancing Translational Sciences (NCATS), 2007).
About 6,500 (4.3%) of roughly 150,000 compounds were called active. This list was built around the results that the source calls inconclusive (neither active nor inactive); the mix of calls is not that of the screen. Calls come from the whole dose curve; as a rule, active = well fitted inhibition curve with a large enough effect (not every such curve was filed as active); inconclusive = small, poorly fitted or top-dose-only effect, or another doubt; inactive = no such curve, though single readings can be large or run the other way. No potency is given beside an inconclusive call; the fits are too rough. Some structures have more than one record in an assay (separate samples or runs), and their calls can disagree.
% is set by controls: 0 for no effect and ±100 for the full control effect; potency is the fitted concentration of half-maximal effect; tags give direction and shape of the fitted curve.

What follows are molecules tested against 15-hydroxyprostaglandin dehydrogenase [NAD(+)] (Homo sapiens) (UniProt P15428) (assay: qHTS Assay for Inhibitors of HPGD (15-Hydroxyprostaglandin Dehydrogenase)). Conditions: purified HPGD, NADH fluorescence kinetic, PGE2 substrate; activity change, negative = inhibition: hits give low values.
Sequence of UniProt P15428 (P15428 whole entry, looked up): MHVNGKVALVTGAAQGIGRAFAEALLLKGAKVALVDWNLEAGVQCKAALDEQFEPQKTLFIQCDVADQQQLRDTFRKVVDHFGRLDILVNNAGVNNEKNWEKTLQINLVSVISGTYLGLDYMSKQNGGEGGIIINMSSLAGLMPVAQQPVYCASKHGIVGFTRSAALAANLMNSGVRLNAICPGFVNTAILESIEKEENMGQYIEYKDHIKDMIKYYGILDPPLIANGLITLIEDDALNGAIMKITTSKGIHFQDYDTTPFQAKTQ
From the text: Human 15-Hydroxyprostaglandin dehydrogenase (HPGD) catalyzes the inactivation of prostaglandin E2, and plays a major role in cancer biology by antagonizing the oncogenic potential of cyclooxygenase type 2 (COX2). Assays are available, based on absorbance/fluorescence increase of NADH with the substrate 15-OH prostaglandin E2. References 1. Myung SJ, Rerko RM, Yan M, Platzer P, Guda K, Dotson A, Lawrence E, Dannenberg AJ, Lovgren AK, Luo G, Pretlow TP, Newman RA, Willis J, Dawson D, Markowitz SD. 15-Hydroxyprostaglandin dehydrogenase is an in vivo suppressor of colon tumorigenesis. […] 2. Yan M, Rerko RM, Platzer P, Dawson D, Willis J, Tong M, Lawrence E, Lutterbaugh J, Lu S, Willson JK, Luo G, Hensold J, Tai HH, Wilson K, Markowitz SD. 15-Hydroxyprostaglandin dehydrogenase, a COX-2 oncogene antagonist, is a TGF-beta-induced suppressor of human gastrointestinal cancers. Proc Natl Acad Sci U S A. 2004 Dec 14;101(50):17468-73. 3. Yang L, Amann JM, Kikuchi T, Porta R, Guix M, Gonzalez A, Park KH, Billheimer D, Arteaga CL, Tai HH, Dubois R, Carbone DP, Johnson DH. Inhibition of Epidermal Growth Factor Receptor Signaling Elevates 15-Hydroxyprostaglandin Dehydrogenase in Non-Small-Cell Lung Cancer. Cancer Res. 2007 Jun 15;67(12):5587-5593. Inhibition of HPGD activity was screened by utilizing prostaglandin as an electron donor and NAD+ as an electron acceptor/cofactor. An increase in the fluorescence intensity due to conversion of NAD+ to NADH was used to measure the enzyme activity. NIH Chemical Genomics Center [NCGC] Structural Genomics Consortium [SGC]
Buffer: 50 mM Tris-HCl, 0.01% Tween 20, pH 8. Enzyme Buffer: 50 mM Tris-HCl, 0.5 mM NAD+ and 0.01% Tween 20, pH 8. Reagents/Controls: Buffer in columns 3 and 4 as negative control (no enzyme). Substrate/cofactor solution: 1 mM NAD+ and 30 uM prostaglandin (Sigma, prostaglandin E2, # P5640) final concentrations dispensed throughout the plate. Enzyme: 20 nM HPGD final concentration in columns 1, 2, 5-48. Column 1 and 2 is neutral (100% activity). A titration of control inhibitor GW5074 (G6416 Sigma-Aldrich, St. Louis, MO) top concentration 10 mM in DMSO, then 1:2 dilution for a total of 16 concentrations in duplicate) was pin-transferred into column 2. Assay Steps: Three uL of enzyme were dispensed to 1536-well Greiner black solid bottom plates. Compounds and control inhibitor (23 nL) were transferred via Kalypsys PinTool. The plates were incubated for 15 min at room temperature, and then 1 uL of substrate/cofactor solution was added to start the reaction. The plates were immediately transferred to and read 5 times every 30 seconds on ViewLux High-throughput CCD imager (Perkin-Elmer) using 360 nm excitation and 450 nm emission fluorescence protocol. The fluorescence intensity difference between the last and the first time points was used to compute reaction progress.
O=C(NCc1ccc(Cl)cc1)c1ccccc1Oc1ccccc1 was tested, and the Potency was active: 10 µM.
With Cc1ccc(-c2cn3cccnc3n2)cc1NC(=O)c1ccc(Br)o1 the Potency was inconclusive [inhibitor, partial curve].
O=C(CSc1ncnc2nc[nH]c12)c1ccccc1 was tested, and the Potency was active: 28.2 µM.
In the case of COc1ccc(C2CC(c3cccs3)=NN2C(=O)CSc2nc3ccccc3s2)cc1 (configuration not stated), the Potency is reported as inconclusive [inhibitor, partial curve].
For O=C(c1ccc(COc2ccccc2Br)o1)N1CCCCCC1, the Potency was active: 14.1 µM.
For CN1CCCC1=Nc1c2c(nc3ccccc13)N(C)CC2, the Potency was inconclusive [inhibitor, partial curve].
In the case of COc1ccc(CN2C(=O)c3cccnc3C2Nc2cc(Cl)ccc2OC)cc1 (configuration not stated), the activity change, negative = inhibition is reported as inactive: -4.9%.
In the case of CCC(C)(C)n1nnnc1C(c1cccnc1)N1CCN(c2cccc(C(F)(F)F)c2)CC1 (configuration not stated), the activity change, negative = inhibition is reported as inactive: -2.96%.
CCOC(=O)/C=c1\s/c(=C\c2ccc(C(F)(F)F)cc2)c(=O)n1CC(=O)NCc1ccco1 was tested, and the activity change, negative = inhibition was inactive: -8.68%.
In the case of CC1CCN(C(c2cc3cc4c(cc3[nH]c2=O)OCO4)c2nnnn2CC2CCCO2)CC1 (configuration not stated), the Potency is reported as inconclusive [inhibitor, partial curve].
In the case of CC(=O)NS(=O)(=O)c1cccnc1Nc1ccc(Cl)cc1, the activity change, negative = inhibition is reported as inactive: 1.37%.
For CCOC(=O)c1cnn2c1[nH]c(=O)c1ccccc12, the Potency was inconclusive [inhibitor, partial curve].
In the case of O=C(CSc1nc2ncccc2[nH]1)c1cccc([N+](=O)[O-])c1, the Potency is reported as inconclusive [inhibitor, partial curve].
With COc1cccc(-n2nnc3c(=O)n(CC(=O)NC4CCCC4)cnc32)c1 the Potency was inconclusive [inhibitor, full curve, poor fit].
In the case of Cc1cccc(Cc2c(C)nc3c(C(=O)NCc4ccco4)cnn3c2C)c1, the Potency is reported as inconclusive [inhibitor, partial curve].
With Cc1ccc(NC(C)c2cc(Cl)ccc2O)cc1 (configuration not stated) the Potency was inconclusive [inhibitor, partial curve].
O=C1c2ccccc2C(=O)C12OC2c1cccc2ccccc12 (configuration not stated) was tested, and the Potency was inconclusive [inhibitor, single point].
With c1ccc(-n2ncc3c(N4CCN(c5ccccn5)CC4)nc(N4CCCCCC4)nc32)cc1 the Potency was inconclusive [inhibitor, full curve].
For O=c1c2ccccc2nc(COc2ccccc2)n1/N=C/c1c[nH]c2ccccc12, the Potency was inconclusive [inhibitor, partial curve].
CCOC(=O)C1=C(N)N(c2ccccc2Oc2ccccc2)C(=O)C1 was tested, and the activity change, negative = inhibition was inactive: 3.71%.
Cc1ccc(NC(=O)CNc2cccc(C)c2C)c(C)c1 was tested, and the Potency was active: 31.6 µM.
In the case of CCOC(=O)c1c(C)[nH]c(=S)c(C#N)c1-c1ccc(Cl)cc1, the activity change, negative = inhibition is reported as inactive: -15.7%.
With Cc1nc2c(C(=O)NCc3ccco3)cnn2c(C)c1Cc1ccc(F)cc1Cl the Potency was inconclusive [inhibitor, partial curve].
With COc1cc(C(=O)Sc2ccc(C)cc2)cc(OC)c1OC the activity change, negative = inhibition was inactive: -9.25%.
CCN(CC)c1nc2ccccc2nc1C(C#N)C(=O)NCCCOC (configuration not stated) was tested, and the Potency was inconclusive [inhibitor, single point].
In the case of Cc1ccc(NC(=O)C2(NC(=O)c3ccccn3)CCCCC2)cc1Br, the activity change, negative = inhibition is reported as inactive: -15.8%.
COc1ccc(CCNc2nnc(Sc3nnnn3-c3ccccc3)s2)cc1OC was tested, and the activity change, negative = inhibition was inactive: -7.25%.
For Cc1ccc(C)c(CSc2nnc(-c3cccnc3)o2)c1, the Potency was active: 25.1 µM.
With Nn1cnn(Cc2ccccc2)c1=S the Potency was active: 20 µM.
In the case of N#C/C(=C\c1ccc(O)c(O)c1)C(=O)Nc1ccccc1, the Potency is reported as inconclusive [inhibitor, partial curve, poor fit].
O=C(CN1C(=O)C2C3C=CC(C3)C2C1=O)OCC(=O)c1ccccc1 (configuration not stated) was tested, and the Potency was active: 25.1 µM.
With CCOC(=O)c1cc2cc3ccccc3cc2[nH]1 the Potency was inconclusive [inhibitor, partial curve].
For CCc1ccc2oc(-c3cc(N)ccc3Cl)nc2c1, the Potency was inconclusive [inhibitor, partial curve].
In the case of Cc1ccnc(SCc2cc(=O)c(OC(=O)c3cc([N+](=O)[O-])ccc3Cl)co2)n1, the Potency is reported as inconclusive [inhibitor, partial curve].
COc1ccccc1-c1cn[nH]c(=S)n1 was tested, and the Potency was active: 22.4 µM.
In the case of Cc1[nH]c(-c2ccc3c(c2)OCO3)nc1C(=O)O, the Potency is reported as inconclusive [inhibitor, partial curve].
With CN1Cc2sc(N)c(C#N)c2CC1(C)C the Potency was inconclusive [inhibitor, single point].
With Cc1cccc(C(=O)Nc2ccccc2SCC(=O)Nc2ccc(C)c(Cl)c2)c1 the Potency was inconclusive [inhibitor, single point].
In the case of O=c1oc2cc(OCc3ccc(F)cc3F)ccc2cc1-c1ccc2ccccc2n1, the Potency is reported as inconclusive [inhibitor, full curve, poor fit].
CCCS(=O)(=O)NCCc1cc2ccc(C)cc2[nH]c1=O was tested, and the Potency was inconclusive [inhibitor, partial curve].
Oc1ccc(-c2csc(-c3ccccc3)n2)cc1O was tested, and the Potency was active: 28.2 µM.
In the case of CCOc1cccc(-c2nnc3sc(C4CCCCC4)nn23)c1, the Potency is reported as active: 31.6 µM.
In the case of Cc1ccc(-c2noc(CCC(=O)Nc3ccccc3C)n2)cc1, the activity change, negative = inhibition is reported as inactive: -7.48%.
With COc1cccc(-c2cc(C(=O)N/N=C/c3ccccc3O)[nH]n2)c1 the activity change, negative = inhibition was inactive: -2.85%.
In the case of Cc1ccc(SCCC(=O)NC(C)(C)C)cc1, the Potency is reported as inconclusive [inhibitor, partial curve].
For CCOC(=O)c1sc(Nc2nc3c(OC)cccc3s2)cc1C, the Potency was inconclusive [inhibitor, partial curve].
With COc1ccc(-c2cc(C(F)(F)F)nc(S(=O)(=O)CCC(=O)N3CCOCC3)n2)cc1 the Potency was inconclusive [inhibitor, partial curve].
